B1: LINE1-mini (parent)
chain: GGCAGAGCUCAACACAGCGUGGCAAAGUGGCUGUGGCUAGACUGCC

Read counts are not given, so values of variants with three or more changes are uncertain.

This data set covers variants of B1. Put plainly: self-cleavage, relative activity (ratio to wild type); higher = more cleavage; in vitro, sequencing; the parent is a self-cleaving ribozyme.
As to GGCAGAGCUCAACAAAGCGUGGCAAAGAGUCUGUGGCUAGACUGCC [C15A U28A G30U], the self-cleavage amounted to 0.06.
The same measure for GGCAGAGCUCAACAGCGCGUGGCACAGUGGCUCUGGCUAGACUGCC [C15G A16C A25C G33C]: 0; for GGCAGAGCUCAACAGAGGGUGGCAAAGUGCCUGUGGCUAGACUGAU [C15G C18G G30C C45A C46U]: 0.02; for GGCAGAGCUCAACAGAGCAUGGCAAACUGGCUGUGGAUAGACUGCC [C15G G19A G27C C37A]: 0.17.
As for GGCAGAGCUCAACAGAGCGUGGCAAGGUGGCUGUGGUUAGACAGCC [C15G A26G C37U U43A], the self-cleavage was found to be 0.01.
For GGCAGAGCUCAACAGAUCGGGGCAAAGUGGCUGUGGCUAGACUGCC [C15G G17U U20G], the self-cleavage stood at 0.02.
With GGCAGAGCUCAACAAAGCGUGGCAAAGAGGCUGUUGCUAGACGGAC [C15A U28A G35U U43G C45A], the self-cleavage came out at 0.05.
For GGCAGAGCUCAACAGAGCGUGGUAAAGUGGCUGUUGCUAGACUGAC [C15G C23U G35U C45A], the self-cleavage was determined as 0.01.
The same measure for GGCAGAGCUCAACAAAGCGUGGCAAAGUGGCUGUGGCAAGACUACC [C15A U38A G44A]: 0.06; for GGCAGAGCUCAACAGAGCGUGGCCAAGUGGCUCUGGCUAGACUGCC [C15G A24C G33C]: 0.26.
GGCAGAGCUCAACAGAGCGUGGCAUAGUGUCUGUGGCUAGACUGUC [C15G A25U G30U C45U]: the self-cleavage was 0.02.
The same measure for GGCAGAGCUCAACAAAGCGUGGCAAAGUGGCUGCGGCUAUACUGCC [C15A U34C G40U]: 0.03.
For GGCAGAGCUCAACAAAGCGUGGCAAAGGGGCUGUGGCUAGACUACC [C15A U28G G44A], the self-cleavage came out at 0.03.
As for GGCAGAGCUCAACAGAUCGUGGCAAAGUGGCUCUGGCUAGACUGCC [C15G G17U G33C], the self-cleavage is 0.03.
In the case of GGCAGAGCUCAACAAAGCGUGGCAAAGCGGCAGUGGCUAGACUGCC [C15A U28C U32A], the self-cleavage was 0.02.
Then GGCAGAGCUCAACAGCGUGUGGCAAAGUGGCUGUGGCUAGACUGCC [C15G A16C C18U], with 0.09; and GGCAGAGCUCAACAGAGAGUGGCACAGUGGCUGUGGCUAGACUGCC [C15G C18A A25C], with 0.03; and GGCAGAGCUCAACAGAGCCUGGGAAAUUGGCUGUGGCUAGGCUUCC [C15G G19C C23G G27U A41G G44U], with 0.07.
Then GGCAGAGCUCAACAGUGCGUGGCAAAGUGGCUGAGGCUAGACUGCC [C15G A16U U34A], with 0.03.
For the variant GGCAGAGCUCAACAAAGCGUGGCAAAGAGGCAGUGGCUAGACUGCC [C15A U28A U32A], the self-cleavage came out at 0.02.
Take GGCAGAGCUCAACAGAGCGUGGCCAAGUCGCUUUGGCUAGACUUCC [C15G A24C G29C G33U G44U]: the self-cleavage amounted to 0.
With GGCAGAGCUCAACAGAGCGUGGCAUAGUGGCGGUGGCUAGACUGCC [C15G A25U U32G], the self-cleavage is 0.02.
As to GGCAGAGCUCAACAGAGCGUUGCAAAGUGGCUGUGGCUAGGCUGCC [C15G G21U A41G], the self-cleavage is 0.06.
Turning to GGCAGAGCUCAACAGAGCCUAGCAAAGUGGCUGAGGCUACACUGCC [C15G G19C G21A U34A G40C], the self-cleavage was 0.04.
Then GGCAGAGCUCAACAGAGUGCGGCAAAGUGGCUGUGGCUUACCUGCC [C15G C18U U20C A39U G40A A41C], with 0.04; and GGCAGAGCUCAACAGAGCUUUGCAUAGUGGCUGUGGCUAGACUUCC [C15G G19U G21U A25U G44U], with 0.02.
As for GGCAGAGCUCAACAAAGCGUGGCAAAGUGGCCGUGUAUAGACUGCC [C15A U32C G36U C37A], the self-cleavage was determined as 0.02.
Turning to GGCAGAGCUCAACAGAGCGUGGGACAGUGGCUGUGGCUAGACUGCC [C15G C23G A25C], the self-cleavage was found to be 0.01.
The same measure for GGCAGAGCUCAACAGAGCGUGGCAAAGUGGCUGUGGCUAGAAUGGC [C15G C42A C45G]: 0.03; for GGCAGAGCUCAACAGAGCGUAGCAGAGUGGCUGUGGCUAGACUGCC [C15G G21A A25G]: 0.03.
Turning to GGCAGAGCUCAACAGAUGGUGGCAAAGUGGCUGUGGCUAGACUGCC [C15G G17U C18G], the self-cleavage turned out to be 0.09.
Regarding GGCAGAGCUCAACAGAGCGUGGCAAAGUGGAUGUGGCUAGACUGCA [C15G C31A C46A], the self-cleavage worked out at 0.01.
Regarding GGCAGAGCUCAACAAAGCGGGUCAAAGUGGCUGUGGCUAGACUGCC [C15A U20G G22U], the self-cleavage stood at 0.07.
GGCAGAGCUCAACAGAGAGUGGCAAAAUAGCUGUGGCUAGACUGCC [C15G C18A G27A G29A]: the self-cleavage is 0.02.
Then GGCAGAGCUCAACAAAGCGUGGCAAAGUGGCUGACGCUAGACUGCC [C15A U34A G35C], with 0.09; and GGCAGAGCUCAACAGAGCGUGGCAACGUGGAUGUGGCUAGACUGCC [C15G A26C C31A], with 0.01.
For the variant GGCAGAGCUCAACAGAGCGUGGUAAAGUGGCUCUGGCUAGACUGCC [C15G C23U G33C], the self-cleavage is 0.34.
With GGCAGAGCUCAACAGAGCUUGGCAAAGUGGCUGUCGCUAAACUGCC [C15G G19U G35C G40A], the self-cleavage worked out at 0.
GGCAGAGCUCAACAGAGCGUGGCAAAGUGGCUGUGGAUGGACUGCC [C15G C37A A39G]: the self-cleavage amounted to 0.02.
GGCAGAGCUCAACAGAGCGUGGCGUAGUGGCAGUGGAGAGACUGCC [C15G A24G A25U U32A C37A U38G]: the self-cleavage was found to be 0.
Take GGCAGAGCUCAACAGAGUGUGUCAAAGGGGCUGUGGCUGGUCUGCC [C15G C18U G22U U28G A39G A41U]: the self-cleavage turned out to be 0.02.
As for GGCAGAGCUCAACAGAGCGUGGUAAAGUAGCUGUGGCUACACUGCC [C15G C23U G29A G40C], the self-cleavage amounted to 0.04.
In the case of GGCAGAGCUCAACAGAGCGUGGCAGUGCGGCUGUGGCUAGACUGCC [C15G A25G A26U U28C], the self-cleavage came out at 0.15.
The same measure for GGCAGAGCUCAACAGCGCGUGGCAAAGUGGCUGUGCCUAGACAGCC [C15G A16C G36C U43A]: 0.02; for GGCAGAGCUCAACAGAGCGUGGCAAAGUGGCUGUGGAAAGACUGCC [C15G C37A U38A]: 0.04; for GGCAGAGCUCAACAGGGCGUGGCCAAGUGGCUGUGGCUAGACUGCC [C15G A16G A24C]: 0.01.
Consider GGCAGAGCUCAACAGAGCGUAGCAAAGUGGCUGCGGCUAGACUGGC [C15G G21A U34C C45G], for which the self-cleavage is 0.02.
As for GGCAGAGCUCAACAGAGUGUGACAAAGGGGCUGUGGCUCGACUGCC [C15G C18U G22A U28G A39C], the self-cleavage was found to be 0.02.
In the case of GGCAGAGCUCAACAAAGCGGGGCAAAGUGGCUGUCGAUAGACCGCC [C15A U20G G35C C37A U43C], the self-cleavage is 0.15.
Consider GGCAGAGCUCAACAGAGCGUGGCGCAGUGGCUGUGGCUAGACUGCC [C15G A24G A25C], for which the self-cleavage is 0.02.
GGCAGAGCUCAACAGAGCGUAGCAACGUGGCUGUGGCUAGACUGCC [C15G G21A A26C]: the self-cleavage turned out to be 0.
For the variant GGCAGAGCUCAACAGAGGGUCGUAAAGUGGCUGUGGCUAGACUGCC [C15G C18G G21C C23U], the self-cleavage is 0.14.
GGCAGAGCUCAACAGAGGGUGGCAAAGUGGCUGUGUCUAGACUGCC [C15G C18G G36U]: the self-cleavage is 0.02.
For the variant GGCAGAGCUCAACAGACCGUGGCAAAGGGGCUGUGGCUAAACUGCC [C15G G17C U28G G40A], the self-cleavage was determined as 0.03.
With GGCAGAGCUCAACAGAGCGUGGCAAAGUGGCUGUGGAUACACUGCA [C15G C37A G40C C46A], the self-cleavage turned out to be 0.02.
With GGCAGAGCUCAACAGAGUGUGGAAAAGUGGCUGUGGCUAGACUGCC [C15G C18U C23A], the self-cleavage turned out to be 0.13.

Source of the values: the RNAGym collection of RNA variant scans (doi:10.7554/elife.90254).
